# According to the supplement of paper PMC12632987:
# Whole data set: some 4,500 sequences, median “median log2 fold change of GCK-ALFA target abundance (FLAG IP / Myc IP barcode read proportion)” near 0.078, cut for the lowest 2% near -0.6. This is one part of the list.
# B1: GBRAP_184_5226 (protein)
# chain: TLENRAVEAETAEEAIKKSDEVVAEAAAAGKKLNLVVIGKNLSLEEVEKVAAYLASLKDAGKVESATLVVEDEVSEEELDKLVAIADKYGVRLVVALSEE
# B2: GBRAP_128_3487 (protein)
# chain: SLEEVKAKTEALMEKIIASTVEEAKKLTAELVALIGTLNEEEREAAEEVFVKHLPKLTEEKLEAVEETLREEMPKLDPESANVVAGLAVEAGQELLELEE
# B3: GBRAP_52_5909 (protein)
# chain: MEEELRELARRMLAAVKAGDEERAREIAREVAETLNDEELEKFIEVVEELVLEAPREELPYYERLAEIVAEELERAGKDEVLADLLLSRVAAAIYKVLQR
# B4: GBRAP_80_6778 (protein)
# chain: ALEEAKAAIKELAKLDKEFAKRAKKILKKLEEKGASEETFKAFAEAVKAIAELLKLGLKEEAKRLLEEMEEATEIEDQEERTAVFRGIAGEALLEVEEAE
# B5: GBRAP_128_3289 (protein)
# chain: ASEELLKKTKELLEKIKNSDKEEAKKYAEELAELIKNSTVEEAEAIAEIVEEKLPELSKEDLEILAEVLDKKRPEFDPEKAAIVAGIADDALLLAEELEE
# B6: GBRAP_128_3209 (protein)
# chain: SVEEVAAEVRKLLEEIKAADEEEREKLARELAELVLNSTVEEARAAAEVVEELAPELSEEDLEILARAFDEAARKTDTEVALELLDISIIAGQAILELEE
# B7: GBRAP_78_6702 (protein)
# chain: EVEEKIEEAIRKLNEAAKLLVDLGTELANDLLGKLVDAMTLLEEAEEEGADLKKLEEALKELKEALKLAKKLDVPEKPEIIKKLEEAIKLVEEAIKELKK
# B8: GBRAP_52_6121 (protein)
# chain: MKAEKAALVKEILALVKAGKLEEARAKIKEFVEKANDEELEIFAEELAAAAAEAAPADWDAVWRLAEMIAEEMEEAGKDEVLVDDLLARVAAALHARELA
# B9: GBRAP_160_4238 (protein)
# chain: SEEIEKLREEITDEAELLLDVLLESPKSQWPAYARAFAGDIVQIVEENENVSDETEEKVAELADEMVAELVAARDASPEELAALLERFVERIVKTVEEGV
# B10: GBRAP_160_4614 (protein)
# chain: SEKMEKLKKEVKELFKEAKEMIEGETPENRAAIVDVTFGQIILEAEELGVLSDEALEKIDEIGDEVVAHIRANPDLTDEEVKKLIEEAEKKILEIIKEEE
# B11: GBRAP_52_6204 (protein)
# chain: MRERMRRLARELVALVLAGDEEGARALARRIVEELDEEELRLLGEELVELAREAAPEDLDAIFRAAEILSEELERGGRPEELADGLLNRVAAALYERELR
# B12: GBRAP_52_5869 (protein)
# chain: ELEEAVKLLEEAVEAMLAGKEEEAKKLLKEIVETFSDETILKAVEKLAEEVLEKSLEEAEAFFKTAELLSDIMIEAGRDENIASYIEAIAGAALYKVEQK
# B13: GBRAP_184_5289 (protein)
# chain: MVEEVVIEAENAEEAIKKIKEAAEKAKKEGKKLRLYLFLKNVDVEGFKKIAELLKELKEEGIIEDAIVEILDERTEEETDKFVEIADKAGIRLVIALSDE
# B14: GBRAP_9_7139 (protein)
# chain: MKEVIDKLIELAEEAKEDALKVAPEDKKPIVKEAFDKFIDKLKELKKNPNTTKEEIKETVETSLKEIKETFKKNFDPETYKMLLAIILTFEVEAEEIIEE
# B15: GBRAP_128_3433 (protein)
# chain: SEEEKLAKAKELIDKALTASVEEVYELTKEFMKVFGTLSKEAREEVAAYAISQLPKLSKEQLEAVADAIREMLPELDPYAQEEAADVLVEALNEAEELEE
# B16: GBRAP_52_6108 (protein)
# chain: MREEAEKLVEELLELVKEGKLEEAKKLIREVVAKWNDEELRILGEAIAERAKEAAPEDFDAIWKLAEMVAEAMEEAGKDEVLVDDLEAEVAAALYERELR
# B17: GBRAP_80_6771 (protein)
# chain: MEEEIEKVLKEIEEIDKEVAKLVKEAIKVAKELGVSDELILEFAKAVLELTKLDKEKARKIVEEALKELKEALKEGDKEAAVGILVDAISEALLEVEELE
# B18: GBRAP_166_4944 (protein)
# chain: AKAEVLAALRAAIAAFAANVAALDEEARLDALIEIGELVRAALEAGASDEEIVAAIGEVLEAAQAAGFDPAVAAGIIANVADVSEELEDKIWERVDELKK
# B19: GBRAP_52_5946 (protein)
# chain: SAAEVAALAEAFVAAAEAGDEAAARAVLLRAARELDEAGLRAFARRLGELLKGRSVEVQEFALEVILEVEDELEALGVSPEVVADLQAEAARALYEALQA
# Biological target: GABARAP, O95166
# Sequence (O95166 whole entry, the tested form may be a part): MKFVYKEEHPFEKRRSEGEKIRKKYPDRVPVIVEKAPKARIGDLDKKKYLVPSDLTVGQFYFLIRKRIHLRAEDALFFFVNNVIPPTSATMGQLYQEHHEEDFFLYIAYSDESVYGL
# Assay: median log2 fold change of GCK-ALFA target abundance (FLAG IP / Myc IP barcode read proportion) (log2 ratio); each designed protein is fused to an ALFA-tag nanobody in HEK293 cells to bring the named protein to FLAG-tagged glucokinase (GCK); Myc marks an untargeted standard; higher = target protein stabilised (more abundant)
# Settings: target protein: 3xFLAG-MCP-GCK-ALFA reporter; HEK293 landing pad (RPLP)
# Method in brief: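 An ALFA-nanobody-fused binder library was recombined into HEK293 landing-pad cells and induced with 2 μg mL^−1 doxycycline. Cells were transfected with a plasmid expressing a FLAG-tagged target and a Myc-tagged standard. After 48 h, lysates underwent anti-FLAG and anti-Myc immunoprecipitation, and circular RNA barcodes were reverse transcribed, amplified and sequenced. Target abundance is the per-binder median log2 ratio of FLAG to Myc barcode read proportions. Barcodes needed ≥10^−7 proportion in both replicates, binders ≥3 barcodes per replicate, and a 10^−6 pseudocount was added; the two replicates were pooled.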
row,Binder,median log2 fold change
1,B1,0.0236
2,B2,-0.0357
3,B3,0.188
4,B4,0.189
5,B5,0.183
6,B6,-0.185
7,B7,0.392
8,B8,0.0518
9,B9,-0.458
10,B10,-0.25
11,B11,0.0849
12,B12,0.00962
13,B13,-0.121
14,B14,0.279
15,B15,0.207
16,B16,0.195
17,B17,0.194
18,B18,-0.219
19,B19,-0.0933
